{
  "source": "paper PMC12820563",
  "about": "“FoxP3 forms a head-to-head dimer in vivo and stabilizes its multimerization on adjacent microsatellites”",
  "note": "The other results are listed elsewhere or left out.",
  "data": [
    {"target": "T1, MBP-FoxP1dN (Mus musculus, UniProt P58462 326-579)", "T1 sequence": "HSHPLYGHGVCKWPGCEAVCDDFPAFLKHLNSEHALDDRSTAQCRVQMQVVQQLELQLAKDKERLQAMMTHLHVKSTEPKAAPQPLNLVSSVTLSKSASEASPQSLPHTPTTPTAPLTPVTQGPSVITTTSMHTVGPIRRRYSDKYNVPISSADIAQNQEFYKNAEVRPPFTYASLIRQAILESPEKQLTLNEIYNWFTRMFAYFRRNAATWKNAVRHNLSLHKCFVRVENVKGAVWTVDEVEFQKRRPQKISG", "assay": "PD-seq (MBP pull-down with sequencing); 20 mM Tris-HCl pH 7.5, 100 mM NaCl, 1.5 mM MgCl2, 0.4 uM protein, 0.1 uM dsDNA library, 30 min, room temperature, amylose pull-down; high values mean tight binding", "settings": "protein: recombinant; tags: His6-MBP; chain copies: 2; dsDNA, one strand shown", "how_it_was_run": "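His6-MBP-tagged mouse FoxP3 or FoxP1 fragment lacking the N-terminus, expressed in E. coli, was mixed at 0.4 µM with 0.1 µM Klenow-filled double-stranded degenerate DNA library. Incubation was 30 min at room temperature in Tris pH 7.5 buffer with NaCl and MgCl2. Complexes were caught on amylose resin and washed three times; DNA was released with proteinase K, PCR-barcoded and Illumina-sequenced. Binding is reads-per-million enrichment, pull-down over input, with replicates pooled.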", "values": [
      {"sequence": "GATGATTGTTCTCCCAGCTGATGAATTTATCGCATCGAGTAAACAAATTTTCCTAATCTTTCTGTTCAAGCGCCATCTAC", "binding signal": "1.46 RPM ratio (pull-down/input)"},
      {"sequence": "GATGATTGTTCTCCCAGCTGATGAATTCCCGGACTCGAGTAAACAAATTTTCCTAATCTTTCTGTTCAAGCGCCATCTAC", "binding signal": "0.762 RPM ratio (pull-down/input)"},
      {"sequence": "GATGATTGTTCTCCCAGCTGATGAATTGCCAGCCTCGAGTAAACAAATTTTCCTAATCTTTCTGTTCAAGCGCCATCTAC", "binding signal": "0.923 RPM ratio (pull-down/input)"},
      {"sequence": "GATGATTGTTCTCCCAGCTGATGAATTACGTTTATCGAGTAAACAAATTTTCCTAATCTTTCTGTTCAAGCGCCATCTAC", "binding signal": "1.43 RPM ratio (pull-down/input)"},
      {"sequence": "GATGATTGTTCTCCCAGCTGATGAATTTTGCGGGTCGAGTAAACAAATTTTCCTAATCTTTCTGTTCAAGCGCCATCTAC", "binding signal": "0.843 RPM ratio (pull-down/input)"},
      {"sequence": "GATGATTGTTCTCCCAGCTGATGAATTGCACGTATCGAGTAAACAAATTTTCCTAATCTTTCTGTTCAAGCGCCATCTAC", "binding signal": "1.19 RPM ratio (pull-down/input)"},
      {"sequence": "GATGATTGTTCTCCCAGCTGATGAATTTTCGTTGTCGAGTAAACAAATTTTCCTAATCTTTCTGTTCAAGCGCCATCTAC", "binding signal": "1.34 RPM ratio (pull-down/input)"},
      {"sequence": "GATGATTGTTCTCCCAGCTGATGAATTGATAAAGTCGAGTAAACAAATTTTCCTAATCTTTCTGTTCAAGCGCCATCTAC", "binding signal": "1.04 RPM ratio (pull-down/input)"},
      {"sequence": "GATGATTGTTCTCCCAGCTGATGAATTCCTCCCCTCGAGTAAACAAATTTTCCTAATCTTTCTGTTCAAGCGCCATCTAC", "binding signal": "0.804 RPM ratio (pull-down/input)"},
      {"sequence": "GATGATTGTTCTCCCAGCTGATGAATTCAGGTTGTCGAGTAAACAAATTTTCCTAATCTTTCTGTTCAAGCGCCATCTAC", "binding signal": "1 RPM ratio (pull-down/input)"},
      {"sequence": "GATGATTGTTCTCCCAGCTGATGAATTCTCTCTTTCGAGTAAACAAATTTTCCTAATCTTTCTGTTCAAGCGCCATCTAC", "binding signal": "0.917 RPM ratio (pull-down/input)"},
      {"sequence": "GATGATTGTTCTCCCAGCTGATGAATTTCCATGATCGAGTAAACAAATTTTCCTAATCTTTCTGTTCAAGCGCCATCTAC", "binding signal": "0.854 RPM ratio (pull-down/input)"},
      {"sequence": "GATGATTGTTCTCCCAGCTGATGAATTGCAGATATCGAGTAAACAAATTTTCCTAATCTTTCTGTTCAAGCGCCATCTAC", "binding signal": "1.23 RPM ratio (pull-down/input)"},
      {"sequence": "GATGATTGTTCTCCCAGCTGATGAATTGGCAGGGTCGAGTAAACAAATTTTCCTAATCTTTCTGTTCAAGCGCCATCTAC", "binding signal": "0.733 RPM ratio (pull-down/input)"},
      {"sequence": "GATGATTGTTCTCCCAGCTGATGAATTTAAAACTTCGAGTAAACAAATTTTCCTAATCTTTCTGTTCAAGCGCCATCTAC", "binding signal": "0.825 RPM ratio (pull-down/input)"},
      {"sequence": "GATGATTGTTCTCCCAGCTGATGAATTTGTGCGCTCGAGTAAACAAATTTTCCTAATCTTTCTGTTCAAGCGCCATCTAC", "binding signal": "1.04 RPM ratio (pull-down/input)"},
      {"sequence": "GATGATTGTTCTCCCAGCTGATGAATTAACACACTCGAGTAAACAAATTTTCCTAATCTTTCTGTTCAAGCGCCATCTAC", "binding signal": "1.2 RPM ratio (pull-down/input)"},
      {"sequence": "GATGATTGTTCTCCCAGCTGATGAATTCAAAACCTCGAGTAAACAAATTTTCCTAATCTTTCTGTTCAAGCGCCATCTAC", "binding signal": "0.864 RPM ratio (pull-down/input)"},
      {"sequence": "GATGATTGTTCTCCCAGCTGATGAATTTCTCGGCTCGAGTAAACAAATTTTCCTAATCTTTCTGTTCAAGCGCCATCTAC", "binding signal": "0.734 RPM ratio (pull-down/input)"},
      {"sequence": "GATGATTGTTCTCCCAGCTGATGAATTTGGGCAATCGAGTAAACAAATTTTCCTAATCTTTCTGTTCAAGCGCCATCTAC", "binding signal": "1.02 RPM ratio (pull-down/input)"},
      {"sequence": "GATGATTGTTCTCCCAGCTGATGAATTAACAGCATCGAGTAAACAAATTTTCCTAATCTTTCTGTTCAAGCGCCATCTAC", "binding signal": "1.26 RPM ratio (pull-down/input)"},
      {"sequence": "GATGATTGTTCTCCCAGCTGATGAATTACGATGGTCGAGTAAACAAATTTTCCTAATCTTTCTGTTCAAGCGCCATCTAC", "binding signal": "0.966 RPM ratio (pull-down/input)"},
      {"sequence": "GATGATTGTTCTCCCAGCTGATGAATTCATTGGGTCGAGTAAACAAATTTTCCTAATCTTTCTGTTCAAGCGCCATCTAC", "binding signal": "0.77 RPM ratio (pull-down/input)"},
      {"sequence": "GATGATTGTTCTCCCAGCTGATGAATTAGTGACTTCGAGTAAACAAATTTTCCTAATCTTTCTGTTCAAGCGCCATCTAC", "binding signal": "0.962 RPM ratio (pull-down/input)"},
      {"sequence": "GATGATTGTTCTCCCAGCTGATGAATTTCAGCCCTCGAGTAAACAAATTTTCCTAATCTTTCTGTTCAAGCGCCATCTAC", "binding signal": "0.731 RPM ratio (pull-down/input)"},
      {"sequence": "GATGATTGTTCTCCCAGCTGATGAATTACGCCCTTCGAGTAAACAAATTTTCCTAATCTTTCTGTTCAAGCGCCATCTAC", "binding signal": "0.952 RPM ratio (pull-down/input)"},
      {"sequence": "GATGATTGTTCTCCCAGCTGATGAATTGTTTTGTTCGAGTAAACAAATTTTCCTAATCTTTCTGTTCAAGCGCCATCTAC", "binding signal": "1.97 RPM ratio (pull-down/input)"},
      {"sequence": "GATGATTGTTCTCCCAGCTGATGAATTATTGTTCTCGAGTAAACAAATTTTCCTAATCTTTCTGTTCAAGCGCCATCTAC", "binding signal": "1.71 RPM ratio (pull-down/input)"},
      {"sequence": "GATGATTGTTCTCCCAGCTGATGAATTTCCGTGATCGAGTAAACAAATTTTCCTAATCTTTCTGTTCAAGCGCCATCTAC", "binding signal": "0.841 RPM ratio (pull-down/input)"},
      {"sequence": "GATGATTGTTCTCCCAGCTGATGAATTGGTGAAGTCGAGTAAACAAATTTTCCTAATCTTTCTGTTCAAGCGCCATCTAC", "binding signal": "0.924 RPM ratio (pull-down/input)"},
      {"sequence": "GATGATTGTTCTCCCAGCTGATGAATTCCTGCAGTCGAGTAAACAAATTTTCCTAATCTTTCTGTTCAAGCGCCATCTAC", "binding signal": "0.788 RPM ratio (pull-down/input)"},
      {"sequence": "GATGATTGTTCTCCCAGCTGATGAATTGGTAACGTCGAGTAAACAAATTTTCCTAATCTTTCTGTTCAAGCGCCATCTAC", "binding signal": "0.964 RPM ratio (pull-down/input)"},
      {"sequence": "GATGATTGTTCTCCCAGCTGATGAATTCCACTCTTCGAGTAAACAAATTTTCCTAATCTTTCTGTTCAAGCGCCATCTAC", "binding signal": "0.826 RPM ratio (pull-down/input)"},
      {"sequence": "GATGATTGTTCTCCCAGCTGATGAATTATATAGTTCGAGTAAACAAATTTTCCTAATCTTTCTGTTCAAGCGCCATCTAC", "binding signal": "1.04 RPM ratio (pull-down/input)"},
      {"sequence": "GATGATTGTTCTCCCAGCTGATGAATTGGGTTCCTCGAGTAAACAAATTTTCCTAATCTTTCTGTTCAAGCGCCATCTAC", "binding signal": "0.828 RPM ratio (pull-down/input)"},
      {"sequence": "GATGATTGTTCTCCCAGCTGATGAATTACTACAATCGAGTAAACAAATTTTCCTAATCTTTCTGTTCAAGCGCCATCTAC", "binding signal": "1.55 RPM ratio (pull-down/input)"},
      {"sequence": "GATGATTGTTCTCCCAGCTGATGAATTCCAAGTATCGAGTAAACAAATTTTCCTAATCTTTCTGTTCAAGCGCCATCTAC", "binding signal": "0.949 RPM ratio (pull-down/input)"},
      {"sequence": "GATGATTGTTCTCCCAGCTGATGAATTATACAAATCGAGTAAACAAATTTTCCTAATCTTTCTGTTCAAGCGCCATCTAC", "binding signal": "1.55 RPM ratio (pull-down/input)"},
      {"sequence": "GATGATTGTTCTCCCAGCTGATGAATTGGGCTCGTCGAGTAAACAAATTTTCCTAATCTTTCTGTTCAAGCGCCATCTAC", "binding signal": "0.852 RPM ratio (pull-down/input)"},
      {"sequence": "GATGATTGTTCTCCCAGCTGATGAATTTTTTCCGTCGAGTAAACAAATTTTCCTAATCTTTCTGTTCAAGCGCCATCTAC", "binding signal": "0.946 RPM ratio (pull-down/input)"}
    ]}
  ]
}
